# Screen size: about 310,000 compounds; about 14,000 (4.5%) showed an effect of 50% or more. The effect is printed as a negative number. This is one part of the list.
# Target: human ether-à-go-go-related gene (hERG) potassium channel (human, UniProt Q12809)
# Experiment: primary screen, population patch clamp on CHO cells stably expressing hERG
# 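Note: peak tail current of the secondary pulse compared with the same well before compound.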
# Chain of human ether-à-go-go-related gene (hERG) potassium channel (Q12809 whole entry, looked up): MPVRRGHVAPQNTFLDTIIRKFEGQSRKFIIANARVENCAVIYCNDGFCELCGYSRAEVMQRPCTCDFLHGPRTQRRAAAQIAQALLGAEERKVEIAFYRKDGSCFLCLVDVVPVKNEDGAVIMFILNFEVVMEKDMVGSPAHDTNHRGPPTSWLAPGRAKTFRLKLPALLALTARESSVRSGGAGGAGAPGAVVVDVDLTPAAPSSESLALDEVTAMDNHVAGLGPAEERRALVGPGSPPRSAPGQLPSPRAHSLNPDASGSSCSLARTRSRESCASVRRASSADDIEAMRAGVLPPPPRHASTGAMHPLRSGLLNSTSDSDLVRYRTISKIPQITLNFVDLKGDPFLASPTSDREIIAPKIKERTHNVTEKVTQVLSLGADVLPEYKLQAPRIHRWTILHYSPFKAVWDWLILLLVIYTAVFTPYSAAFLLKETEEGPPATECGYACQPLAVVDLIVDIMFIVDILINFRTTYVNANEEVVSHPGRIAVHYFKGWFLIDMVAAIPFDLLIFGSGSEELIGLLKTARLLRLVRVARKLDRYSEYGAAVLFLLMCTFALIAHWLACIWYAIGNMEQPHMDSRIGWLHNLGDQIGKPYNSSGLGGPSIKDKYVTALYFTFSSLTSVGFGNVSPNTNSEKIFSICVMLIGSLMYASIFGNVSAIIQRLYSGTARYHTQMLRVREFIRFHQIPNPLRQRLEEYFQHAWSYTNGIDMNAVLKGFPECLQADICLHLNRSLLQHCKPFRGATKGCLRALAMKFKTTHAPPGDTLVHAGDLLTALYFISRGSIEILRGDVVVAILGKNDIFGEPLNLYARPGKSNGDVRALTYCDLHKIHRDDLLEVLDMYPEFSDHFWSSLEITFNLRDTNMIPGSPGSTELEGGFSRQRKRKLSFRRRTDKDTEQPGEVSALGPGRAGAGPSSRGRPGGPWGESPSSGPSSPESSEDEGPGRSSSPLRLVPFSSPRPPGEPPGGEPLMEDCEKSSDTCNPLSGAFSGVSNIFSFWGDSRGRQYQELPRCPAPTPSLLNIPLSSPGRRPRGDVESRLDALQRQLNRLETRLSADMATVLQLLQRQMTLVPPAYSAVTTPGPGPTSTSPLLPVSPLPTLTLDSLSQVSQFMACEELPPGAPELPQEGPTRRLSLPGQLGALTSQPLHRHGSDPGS
row,SMILES,"hERG current change (%, negative = inhibition) at 10uM [%]"
1,O=C1[C@@H]2C3C=CC(O3)[C@@H]2C(=O)N1c1ccccc1,11.6
2,CCOc1ccc(OCCOC(=O)CN(C)S(=O)(=O)c2ccc(NC(C)=O)cc2)cc1,-16.8
3,O=S(=O)(NCC(c1ccc2c(c1)OCO2)N1CCN(c2ccccc2)CC1)c1ccccc1 (centres unmarked),5.41
4,CCOC(=O)c1c(-c2ccc(C)o2)csc1NC(=O)CSc1nnc(C)s1,6.97
5,CC12CC3CC(C)(C1)CC(C(=O)NCc1ccncc1)(C3)C2,9.2
6,CCOc1ccc(NC(=O)CSc2ccc(-c3cccnc3)nn2)cc1,-5.55
7,O=C(c1ccc(NS(=O)(=O)c2ccc(F)cc2)cc1)N1CCC1,16.4
8,Cc1ccc2cc(CCNC(=O)c3cccc([N+](=O)[O-])c3)c(=O)[nH]c2c1C,-19.7
9,CCc1ccc(N2CC(C(=O)OCC(=O)Nc3ccc([N+](=O)[O-])cc3)CC2=O)cc1 (centres unmarked),-36.9
10,CCCNC(=O)N1[C@H]2CC[C@@H]1C(C(=O)OC)=C(c1ccc(S(C)(=O)=O)cc1)C2,12.3
11,CC(C)OC(=O)C[N+](C)(C)CCN1C(=O)C2C(c3ccccc3)C=CC(c3ccccc3)C2C1=O.[Br-] (centres unmarked),18
12,CCn1c(=O)n(CC)c2cc(NC(=O)c3ccccc3Cl)ccc21,17.5
13,COc1ccc(CN2CCC(CO)(Cc3ccccc3C(F)(F)F)CC2)c(F)c1,-67.3
14,Cc1cc(C(=O)Nc2ccccc2C(=O)O)oc1C,14.6
15,Cc1ccc(/C=N/NC(=S)NC2CCCCC2)o1,-4.48
16,CN(C)C1(c2nnnn2CCOC(=O)Nc2ccc(Cl)cc2)CCCCC1,-24.2
17,Cc1cc(C)c(CN2CCC(n3nccc3NC(=O)C3CCOC3)CC2)cc1C (centres unmarked),-19
18,Cc1c(NC(=S)NC(NC(=O)C(C)(C)C)C(Cl)(Cl)Cl)c(=O)n(-c2ccccc2)n1C (centres unmarked),-2.16
19,Cc1cccc(NC(=S)NNC(=O)c2sccc2C)c1,12.4
20,CCn1c(SCC(=O)NC2CC2)nnc1-c1ccncc1,14.8
21,Cc1ccccc1N1CCN(CCCN2C(=O)C3CCCCN3C2=O)CC1 (centres unmarked),-9.54
22,CC(C)(C)NC(=O)C(=O)NNC(=O)c1ccco1,18.1

row,SMILES,"hERG current change (%, negative = inhibition) at 10uM [%]"
1,CC1CCN(CC(=O)Nc2nc(-c3ccccc3)cs2)CC1,-9.09
2,CN(Cc1cn[nH]c1-c1ccc(-c2ccccc2)cc1)CC1CCOCC1,-46.2
3,COc1cc2c(cc1OC)C(C)N(C(=O)Cn1ncc3c1-c1cc(C)ccc1OC3)CC2 (centres unmarked),-35.7
4,NC(=O)CCSC(=S)N1CCOCC1,4.26
5,COc1cc(C2C3=C(CC(C)(C)CC3=O)N(C)C3=C2C(=O)CC(C)(C)C3)ccc1O,8.85
6,CCn1c2ccccc2c2cc(NC(=O)CSc3nnc(-c4cccc(OC)c4)n3N)ccc21,-14.6
7,Cc1cc(C)c2cc(CN(Cc3ccco3)C(=S)NCC3CCCO3)c(=O)[nH]c2c1 (centres unmarked),-14.8
8,O=C(Cn1cc(C(F)(F)F)ccc1=O)N/N=C/c1ccccc1,33.6
9,O=C(NCCO)c1ccc(-c2nnc(Nc3ccc(O)cc3)c3ccccc23)cc1,16.8
10,Cc1cccc(OCc2nnc(SCC(=O)c3ccccc3)o2)c1,2.71
11,Cc1ccc(C)c(S(=O)(=O)N2CCN(C(=O)Cc3ccc(S(=O)(=O)N4CCOCC4)s3)CC2)c1,-0.423
12,COc1cccc(NC(=O)CCCn2nc(C)c3c(C)n(-c4ccccc4)nc3c2=O)c1,0.596
13,O=c1c2cc(NC(=S)NC3CCN(Cc4ccccc4)CC3)ccc2nc2n1CCCCC2,-10.4
14,CN1CCN(C(=O)/C(C#N)=C/c2ccc(F)cc2)CC1.Cl,6.63
15,Cc1nnc(NC2CCCCC2)[nH]c1=O,13.4
16,Cc1ccc(NC(=S)Nc2cccc(S(=O)(=O)Nc3c(C)n(C)n(-c4ccccc4)c3=O)c2)cc1,15.3
17,Cc1cc(Br)ccc1SCC(=O)NCC(c1ccco1)N1CCCCC1 (centres unmarked),-40
18,O=C1N/C(=C\c2ccsc2)C(=O)N1Cc1ccc(F)cc1,12.3
19,CCCCn1nnnc1NCc1cc(OC)c(OC)c(OC)c1,4.78
20,Cc1ccccc1C1CC(c2ccccc2)Nc2ncnn21 (centres unmarked),-6.82
21,CC(C)c1ccc(S(=O)(=O)Nc2ccc(SC(F)F)cc2)cc1,15.2
22,C=CCC(C(=O)OC)(C(=O)OC)c1ccc(C(F)(F)F)cc1[N+](=O)[O-],5.51

row,SMILES,"hERG current change (%, negative = inhibition) at 10uM [%]"
1,CCOc1ccccc1NC1=C(Cl)C(=O)N(c2ccccc2)C1=O,5.08
2,COc1ccc(CCNC(=O)CCNC(=O)N2CC(=O)Nc3ccccc32)cc1,-5.11
3,CCOC(=O)CN(C(=O)COc1nc(-c2ccccc2)cc(C)c1C#N)c1ccccc1C,4.99
4,O=C(O)/C=C/c1ccc2noc(-c3ccccc3)c2c1,9.03
5,CCCC(=O)Nn1cnc2c(c1=O)C1(CCCCC1)Cc1ccccc1-2,0.281
6,CC(C)c1nnc(NC(=O)C2CCCN2C(=O)Nc2ccccc2[N+](=O)[O-])s1 (centres unmarked),-37.7
7,Cc1cccc(NC(=O)CSc2nnc(CCC(=O)Nc3ccc(C)c(Cl)c3)n2C)c1,5.44
8,O=C(CSc1nc2c(c(=O)[nH]1)CCCC2)Nc1ccc(Cl)cc1F,7.95
9,CC1(C)Oc2ccc(NC(=O)c3ccco3)cc2O1,-6.17
10,CCOC(=O)Cc1csc(NC(=O)CCc2ccccc2)n1,-2.42
11,Cc1cc(C(=O)NC2CC(C)(C)Cc3c2cnn3-c2cccc(F)c2)nn1C (centres unmarked),-2.79
12,CCOC(=O)c1sc(NC(=O)c2ccc(S(=O)(=O)N(C)C)cc2)nc1C,18.8
13,OCC1(Cc2ccccc2)CCCN(Cc2cnn(-c3ccccc3)c2)C1 (centres unmarked),-59.4
14,O=C(Cc1ccccc1)Nc1ccc(Br)c(Cl)c1,1.44
15,COc1cc(-c2cc(N3C(=O)Nc4ccccc4N3O)n[nH]2)cc(OC)c1OC,3.55
16,O=C(C1=C(O)C(=O)N(Cc2ccco2)C1c1cccnc1)c1cc2ccccc2o1 (centres unmarked),13.4
17,CCOc1cccc2cc(C(=O)N3CCc4ccccc43)c(=O)oc12,-2.43
18,Cc1nc2c(-c3ccc(F)cc3)c(C)nn2c(C)c1CCC(=O)N1CCOCC1,-53.3
19,O=C(O/N=C1\C(=O)N(c2ccccc2)c2ccccc21)C1CC1,15.7
20,O=C(COC(=O)CSc1ccc([N+](=O)[O-])cc1)NCCCc1ccccc1,4.5
21,Cc1ccc(NC(=O)C(C)c2ccc(-c3ccccc3)c(F)c2)cc1 (centres unmarked),14.4
22,Cc1cc(C(=O)CN2CCC(C)CC2)c(C)n1-c1ccc(F)cc1,-25.5

row,SMILES,"hERG current change (%, negative = inhibition) at 10uM [%]"
1,O=C1Nc2ccccc2S/C1=C/c1cccs1,22.2
2,COc1ccc(OCC(=O)Nc2cccc(-c3nc4ccccc4[nH]3)c2)cc1,-55.9
3,CCOC(=O)Nc1ccc2c(COC(=O)CNS(=O)(=O)c3ccc(NC(C)=O)cc3)cc(=O)oc2c1,5.68
4,O=C(N/N=C/c1cccnc1)c1ccc(F)cc1,3.54
5,COc1ccc(NC(=O)CCC(=O)N/N=C/c2ccncc2)cc1,3.23
6,CSc1nnc(C)c(=O)n1COC(=O)c1ccc(S(=O)(=O)N2CCOCC2)cc1,-8.06
7,Cc1cc(C)nc(SCCn2c(N3CCOCC3)nc3c2c(=O)[nH]c(=O)n3C)n1,21.5
8,O=C(c1sc2ccccc2c1Cl)N1CCN(CCc2ccccn2)CC1,-60.5
9,COc1ccc(-c2nc3ccccc3c(=O)n2CCOc2cccc(C)c2C)cc1,15
10,COC(=O)CC/C(=N/Nc1ccc(Cl)c(Cl)c1)C(=O)OC,13.6
11,Cc1ccc(S(=O)(=O)N/N=C/c2ccccc2O)cc1[N+](=O)[O-],2.59
12,CCN(CC)S(=O)(=O)N1CCC(C(=O)NCc2ccc(C)cc2)CC1,-16.9
13,COc1ccc(/C=C2\COc3ccccc3C2=O)cc1OC,-17.1
14,CCCC(=O)Nc1nc2ccc(C(=O)OCC)cc2s1,11.4
15,COc1cc(NS(=O)(=O)c2ccc(NS(=O)(=O)c3ccc(NC(C)=O)cc3)cc2)nc(OC)n1,22.7
16,CC1Cc2ccccc2N1C(=O)COC(=O)c1c2c(nc3ccccc13)CCCCC2 (centres unmarked),6.67
17,Cc1ccn2c(C(=O)N/N=C\c3cccs3)c(C)nc2c1,-7.56
18,CC(Nc1cccc2ccccc12)C(=O)N/N=C/c1ccccn1 (centres unmarked),10.4
19,S=C1NCCOCCOCCOCCNC(=S)N2CCOCCOCCN1CCOCCOCC2,13.6
20,FC(F)(F)c1cc(Sc2ccccc2)nc(-c2ccccn2)n1,-19.3

# From PMC4336329 (PLoS ONE, 2015)
